Binding data for one molecule are collected here from PMC7392005.

These are yes or no findings as the source states them, for the method shown. In cells and extracts the contact can be indirect. Some results given as binding are weak or reduced against the parent protein; the word gives no strength. Sequences can lack the tags named with a protein.

For this assay, the target named is HA-tagged p65 overexpressed in MCF-7 cells, Q04206. The assay is described as follows: co-IP; MCF-7 cells overexpressing Flag-tagged CHIP and HA-tagged p65, with or without overexpression of FBP1 (text; the legend says PIM2); total cell lysates. The conditions noted are these: remark: other sources report otherwise.

B1: Flag-tagged CHIP, Q9UNE7 1-303 (enzyme)
chain: MKGKEEKEGGARLGAGGGSPEKSPSAQELKEQGNRLFVGRKYPEAAACYGRAITRNPLVAVYYTNRALCYLKMQQHEQALADCRRALELDGQSVKAHFFLGQCQLEMESYDEAIANLQRAYSLAKEQRLNFGDDIPSALRIAKKKRWNSIEERRIHQESELHSYLSRLIAAERERELEECQRNHEGDEDDSHVRAQQACIEAKHDKYMADMDELFSQVDEKRKKRDIPDYLCGKISFELMREPCITPSGITYDRKDIEEHLQRVGHFDPVTRSPLTQEQLIPNLAMKEVIDAFISENGWVEDY
Regarding B1, the binding result is listed as “binds”.
